The record followed here is patent US9353185B2, “Antibodies” (Affitech Research AS, priority 2010, dated 2016).

The target in series [1] is T1, monkey (Macaca mulatta) CXCR4 (Macaca mulatta, UniProt P79394).
T1 construct: expressed in transfected cells; host or cells: HEK-293 (HEK293T/17), transient transfection with Fugene
In words: Species cross reactivity: binding to HEK-293 cells transiently expressing monkey CXCR4. Conditions: scFv level; transiently transfected HEK-293 cells. Here is the method:
(§1) The antibody candidates were tested on scFv level for their ability to cross-react with CXCR4 from monkey and mouse.
(§2) HEK293T/17 cells were maintained as described above.
(§3) FACS-binding analyses (EasyCyte) were performed using HEK-293 cells transiently transfected with plasmids encoding either, mouse (Gene bank accession number BC031665) or monkey (Macaca mulatta) CXCR4 (NCBI Accession number NP_001036110). Two experiments were performed, one using α-cMyc and PE-labelled goat anti-mouse IgG antibody, the second using a directly conjugated RPE-c-Myc antibody for detection. In addition, cross-reactivity on IgG level was analysed. In the latter case, antibody binding was detected with PE-conjugated goat anti-human IgG antibody.

For series [2], the target named is T2, CXCR4 (Homo sapiens, UniProt P61073).
T2 construct: CRL-1596 (Ramos); host or cells: Ramos, Jurkat 6E-1, CCRF-CEM
T2 sequence (P61073 whole entry): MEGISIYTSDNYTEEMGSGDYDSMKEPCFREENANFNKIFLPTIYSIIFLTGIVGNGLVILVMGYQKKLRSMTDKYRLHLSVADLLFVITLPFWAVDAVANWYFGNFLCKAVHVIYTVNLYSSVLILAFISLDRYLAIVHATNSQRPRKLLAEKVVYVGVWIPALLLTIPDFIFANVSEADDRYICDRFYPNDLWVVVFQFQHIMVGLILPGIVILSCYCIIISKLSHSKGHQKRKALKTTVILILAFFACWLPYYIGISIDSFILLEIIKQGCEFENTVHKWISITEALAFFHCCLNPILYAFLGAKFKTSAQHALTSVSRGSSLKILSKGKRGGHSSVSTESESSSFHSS
In words: Interference with ligand binding: IgG binding to CCRF-CEM cells without and with SDF-1α. Here is the method:
CCRF-CEM were maintained as described above.
Cells of the natural CXCR4^+ expressing cell line CCRF-CEM were harvested from the culture flasks, washed 2 times with PBS supplemented with 0.2% BSA and 0.09% NaN3 buffer and aliquoted at 1×10^5 cells per well into V-shaped 96-well plates (Greiner Bio-One, Frickenhausen, Germany). Cells were pelleted by centrifugation (350 g, 5 min) and then incubated for 60 min at 4° C. with 4, 1, 0.5 μg SDF-1α (PeproTech EC, London, UK) and 50 μl IgG diluted to 2 μg/ml in PBS supplemented with 0.2% BSA and 0.09% NaN3 buffer, both added at the same time to the cells. Samples without ligand served as control. The supernatants were aspirated after a centrifugation step at 350 g for 5 min and the cells were washed another two times with 150 μl PBS supplemented with 0.2% BSA and 0.09% NaN3 and centrifugation steps (5 min at 350 g) before being stained with RPE-conjugated goat anti-human IgG (AbD seroTec #204009) diluted to 2.5 μg/ml in with PBS supplemented with 0.2% BSA and 0.09% NaN3 and incubated for 30 minutes at 4° C. The cells were washed again and re-suspended in 200 μl PBS with 0.2% BSA and 0.09% NaN3 and transferred to a U-shaped 96-well plate (Corning) for flow cytometry using an EasyCyte device (Guava Technologies, Hayward, Calif., USA).

The next series addresses T3, mouse CXCR4 (Mus musculus, UniProt P70658).
T3 construct: expressed in transfected cells; host or cells: HEK-293 (HEK293T/17), transient transfection with Fugene
Description: Species cross reactivity: binding to HEK-293 cells transiently expressing mouse CXCR4. The settings on record: scFv level; transiently transfected HEK-293 cells. Here is the method: as §1, §2, §3

In series [3] the target is T2, CXCR4. Description: Inhibition of SDF-1α ligand induced Ca++ flux in CCRF-CEM cells (Fluo-4). The class given is cell-based. Here is the method: 9N10 was only tested on IgG level. The experiment was performed using the naturally CXCR4^+ positive cell line CCRF-CEM.
The CCRF-CEM target cells, were harvested by centrifugation and washed twice in RPMI-1640 culture medium. Either 1 ml with 2.5×10^6 cells (for IgGs) or 10 ml with 2.5×10^7 cells (for scFvs) were mixed with Fluo-4-AM (acetoxymethyl ester; Invitrogen), Pluronic F-127 (Invitrogen) and Probenecid to final concentrations of 1 μM, 0.02% and 1 mM respectively. The cells were incubated at 37° C. for 60 mM on a vertical rotating wheel (7 rpm). All subsequent steps were done in the presence of 1 mM Probenecid. The cells were washed twice in RPMI-1640 with 10% fetal calf serum (FCS), once in an assay buffer (145 mM NaCl, 4 mM KCl, 1 mM NaH2PO4, 0.8 mM MgCl2, 25 mM Hepes, 22 mM glucose) and then resuspended to a final density of 4×10^6 cells/ml. Equal volumes of cells, assay buffer with or without antibodies and ligand (SDF-1α) were mixed. The first two components (cells and antibodies) were pre-incubated for 15 min prior to adding the ligand, SDF-1α (final concentration 50 ng/ml). The final concentrations of antibodies were 10 μg/ml or 100 μg/ml for IgGs and 4 μg/ml for scFvs. The samples were immediately analyzed using the 515-545 nm band pass filter on a FACSCanto II (BD Biosciences). The areas under the curves (AUC) were integrated using software Prism (GraphPad) and plotted as percentage of AUC for maximal stimulation with SDF-1α alone.
The experiment was performed as described above, but the antibodies were used in a titration series with concentrations of 100, 20, 4, 0.8, 0.16, 0.032, 0.064 and 0.00128 μg/ml.

The subject of a further series is CXCR4+ Ramos cell line. Description: Induction of apoptosis (Annexin V / PI staining). The class given is cell-based, human. The settings on record: IgG1 0.08 to 10 μg/ml, 48 hrs, versus background level. Here is the method:
The ability of anti-CXCR4 antibodies to induce apoptosis was assessed on the CXCR4^+ Ramos cell line.
Ramos cells were cultivated as described above.
The Ramos cells were harvested by centrifugation, washed twice in RPMI-1640 culture medium with 10% FCS and resuspended in RPMI-1640 medium with 10% FCS to a density of 3×10^5 cells/ml. The cell suspension (250 μl) was mixed with the same volume of either antibody to be tested in dilutions (final concentration of 0.08 to 10 μg/ml) or staurosporin (25 nM) in wells of a 24-well plate and incubated at 37° C. for 48 hrs. The cells were collected by centrifugation and washed in Annexin V Binding Buffer (10 mM Hepes, 140 mM NaCl, 2.5 mM CaCl2, 0.2% BSA, pH 7.4). The cells were harvested again and resuspended in 300 μl Annexin V Binding Buffer. Both FITC-conjugated Annexin V and propidium iodide (PI) were mixed with 240 μl cell suspension resulting in a final concentration of PI of 0.2 μg/ml. The samples were analyzed immediately after adding the ligand using the 515-545 nm and 610/20 nm band pass filters on a FACSCanto II flow cytometer (BD Biosciences). The apoptotic cells were defined as Annexin V positive/PI negative and the dead cells were defined as PI positive.

Entries after “also recorded” stand apart in the source; their conditions may differ.

T1 sequence (P79394 whole entry): as the sequence (P61073 whole entry) above, with M24I, N35H, K38R, R146K, N176S, V214D counted along it
T3 sequence (P70658 whole entry): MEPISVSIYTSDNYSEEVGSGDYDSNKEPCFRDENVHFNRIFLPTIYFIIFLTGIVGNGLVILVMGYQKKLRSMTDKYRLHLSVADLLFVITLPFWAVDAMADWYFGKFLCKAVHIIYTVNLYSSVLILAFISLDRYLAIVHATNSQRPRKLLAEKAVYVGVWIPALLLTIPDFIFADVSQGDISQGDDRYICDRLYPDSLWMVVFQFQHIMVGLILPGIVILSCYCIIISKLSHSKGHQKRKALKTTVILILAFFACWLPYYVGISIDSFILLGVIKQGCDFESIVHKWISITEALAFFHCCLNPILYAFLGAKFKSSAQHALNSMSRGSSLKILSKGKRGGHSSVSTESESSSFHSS

B1: 9N10: human anti-CXCR4 antibody; scFv SEQ ID NO: 101; same VH as C-9P21; IgG1/kappa heavy chain SEQ ID NO: 108, light chain SEQ ID NO: 125 (antibody)
heavy: QVQLQESGGGLVHPGGSLRLSCAASGFTFSSYWMHWVRQAPGKGLVWVSRINSDGSSTSYADSVKGRFTISRDNAKNTLYLQMNSLRAEDTAVYYCARKILGVGARSRRYFDYWGQGTMVTVSS[human IgG1 constant region left out]
light: DIVLTQTPDSLAVSLGETTTINCKSSQSVLHSSNNKNYLAWYQQKPGQPPKLLIYWASTRESGVPDRFSGSGSGTDFTLTISNLQPEDVAFYYCLQYSTFPRTFGQGTKVEIKRTVAAPSVFIFPPSDEQLKSGTASVVCLLNNFYPREAKVQWKVDNALQSGNSQESVTEQDSKDSTYSLSSTLTLSKADYEKHKVYACEVTHQGLSSPVTKSFNRGEC
modifications: antibody sequence
notes: human anti-CXCR4 antibody; same VH as C-9P21
Regarding B1, the “cross-reactivity with monkey CXCR4” value in series [1] is “bind to both human CXCR4 and monkey CXCR4; also recorded: same cross-reactivity pattern as C-9P21, with slightly higher absolute values for binding”. Further, the “specific binding to CCRF-CEM cell line” value with CXCR4 [2] (IgG 2 μg/ml (0.1 μg per 10^5 cells)) was “specific binding”. The “inhibition of antibody binding by SDF-1” value with CXCR4 [2] (IgG, 4, 1, 0.5 μg SDF-1α, CCRF-CEM cells) is recorded as “capable of inhibiting the binding of CXCR4 to its ligand SDF-1; also recorded: inhibited by SDF-1”. Besides, in the series with mouse CXCR4, the “cross-reactivity with mouse CXCR4” value is recorded as “same cross-reactivity pattern as C-9P21, with slightly higher absolute values for binding”. The “inhibition of SDF-1α-induced signalling, IgG level” value with CXCR4 [3] (IgG 10 or 100 μg/ml (9N10: 1 or 10 μg/ml), CCRF-CEM cells) is reported as “inhibition of SDF-1α-induced signalling was demonstrated”. Moreover, the “efficiency in inhibition of Calcium flux relative to C-9P21” value with CXCR4 [3] (IgG level, from IC50 values) is “approximately eight times more efficient”. Besides, the “antagonistic effect on Ca++ signalling induced by SDF1α binding to CXCR4 (overall)” value with CXCR4 [3] (scFv and/or IgG, CCRF-CEM cells) is “capable of inhibiting ligand induced signalling via CXCR4; also recorded: most prominent effect”. For the same molecule, in the series on CXCR4+ Ramos cell line, the “induction of apoptosis (Annexin V positive/PI negative cells)” value is listed as “do not induce significant apoptosis”.
